Measurements: US20200299366A1 (SHANGHAITECH UNIVERSITY, published 2020)
Ends that are not written are not given here.

Experiments:
[1] = target: T1, Cx26 polypeptide antigen (KEVWGDEQADFVCNTL, amino acids 41-56 of the extracellular region of human Connexin … (human, also: biotinylated, position not given here)); test: SPR, multi cycle kinetics: scFv II-Fc captured as ligand by anti-human IgG on a CM5 chip, antigenCB peptide as analyte
T1 construct: also called biotinylated antigen polypeptide; peptide antigen CB
T1 peptide: KEVWGDEQADFVCNTL
Description: 1. Octet RED instrument and its detection chip (CM5 chip) was purchased from Pall Corporation. 2. Anti-human IgG antibody was purchased from Thermo Scientific.
The affinity and kinetics of the antibody and the antigen were detected by the method of multi cycle kinetics. Immobilization of the antibody was performed by capture method. First, the anti-human IgG antibody was coupled to the CM5 chip, and then the Anti-Cx26-scFv II-Fc antibody sample flowed through the chip surface after being serial diluted. The antibody to be detected was then captured by the coupled anti-human Fc antibody. Then the polypeptide antigen (synthesized by Nanjing Genscript Co. Ltd, sequence: Seq ID NO: 5) was added, the antigen was bound with the antibody, and the signal was detected and recorded. Finally, the antibody and the antigen samples on the CM5 chip surface were eluted by regeneration reagent (glycine solution, pH1.7) for a new round of testing.

[2] = target: human Cx26 protein expressed from the Cx26-Venus-YFP plasmid on HeLa DH cells (human, UniProt P29033); test: cell-based or functional assay

koff [1]: 0.00422 s⁻¹
kon [1]: 57900 M⁻¹ s⁻¹
Cx26 hemichannel activity (whole cell patch clamp hemichannel current, 940 nM antibody against 100 uM Zn2+) [2]: 100 fold
B1: Anti-Cx26-scFvII-Fc (Fc fusion)
chain: MAQVQLQQSGGGVVQPGRSLRLSCAASGFTFSSYAMHWVRQAPGKGLEWVAVISHGGSNKYYADSVKGRFTISRDNSKNTLYLQMNSLRAEDTAVYYCARDFSWRGYYMDVWGKGTLVTVSSGSGGGGSETTLTQSPATLSLSPGERATLSCRASQSISSYLAWYQQKPGQAPRLLIYGASTRATGIPDRFSGSGSGTDFTLTISRLEPEDFAVYYCQQYGSSPRTFGGGTKVEIKRGLGGPMVRS[skipping human IgG1 Fc]
notes: also called Anti-Cx26-scFv II-Fc antibody; scFv II-Fc antibody
